From patent US12544366B2, “Combination of endocannabinoid and mTOR inhibitors in the treatment of neuroendocrine neoplasms” (HADASIT MEDICAL RESEARCH SERVICES AND DEVELOPMENT LTD., priority 2022, dated 2026)

What was measured:
[1] = tested on: NCI-H727 and PNET BON-1 cells
[2] = tested on: NEN cells (NCI-H727 and PNET BON1); test: Annexin V / propidium iodide FACS analysis of apoptosis and necrosis; format: cell-based, human; conditions: relative to untreated cells
Source text: In the dot plots, each dot represents a single cell; apoptotic cells are located above the horizontal line of the quadrats, necrotic cells are located right to the vertical line of the quadrants.
For apoptosis evaluation cells were stained with-APC tagged Annexin V and Propidium Iodide (PI) according to the manufacturer's instructions (BioLegend, San Diego, CA, USA).

[3] = tested on: NEN cell lines PNET BON1 and NCI-H727; test: WST-1 viability assay of NEN cell lines
[4] = tested on: lung NCI-H727 tumor xenograft; test: Subcutaneous NEN xenograft tumor model; conditions: day 23; IP injections; control PBS reached 400%

Cc1c(C(=O)NN2CCCCC2)nn(-c2ccc(Cl)cc2Cl)c1-c1ccc(I)cc1 [AM251]
effect on cell proliferation (CFSE generations) ([1]; 48 hours of treatment, 6 to 8 generations): causes cell arrest | cell cycle phase ([1]; NCI-H727 and PNET BON-1 cells, FACS): transition from S phase and G2 M phase to G0/G1 phase | increase of NENs apoptosis ([2]; 10 uM and 30 uM): more than 2 fold | reduction of the percentage of necrotic cells [2]: 2 fold

COc1ccc2c(c1)c(CC(=O)N1CCOCC1)c(C)n2C(=O)c1ccc(Cl)cc1 [BML-190]
effect on viability of the cells ([3]; antagonist alone, cells not exposed to cannabis extract): did not reduce the viability of the cells

CO[C@H]1C[C@@H]2CC[C@@H](C)[C@@](O)(O2)C(=O)C(=O)N2CCCC[C@H]2C(=O)O[C@H]([C@H](C)C[C@@H]2CC[C@@H](OCCO)[C@H](OC)C2)CC(=O)[C@H](C)/C=C(\C)[C@@H](O)[C@@H](OC)C(=O)[C@H](C)C[C@H](C)/C=C/C=C/C=C/1C [Everolimus, everolimus]
tumor volume versus initial tumor size (100% at baseline) [4]: 200% | effect on NEN cell viability ([3]; Everolimus alone at 20 nM and 50 nM, over 72 hrs, WST-1): did not affect NEN cell viability
